In PubChem BioAssay AID624417 (National Center for Advancing Translational Sciences (NCATS), 2012):
Out of some 410,000 compounds screened, about 6,400 (1.6%) were called active. The inconclusive results got no clear call from the source; some entries with a clear call stand among them for comparison. Calls come from the whole dose curve; as a rule, active = well fitted inhibition curve with a large enough effect; inconclusive = small, poorly fitted or top-dose-only effect; inactive = no such curve, though single readings can be large or run the other way. No potency is given beside an inconclusive call; the fits are too rough.

target: Glucagon-like peptide 1 receptor (Homo sapiens) (UniProt P43220); experiment: qHTS of GLP-1 Receptor Inverse Agonists (Inhibition Mode); settings: HEK293 GLP-1R CRE-luciferase, luminescence, 24 h, GLP-1R form is constitutively active; series mostly up to 38.3 µM; note: nearly all actives have a fitted effect of over 55% in size
In short: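 Inverse agonists were sought by their lowering of basal cAMP reporter luciferase output in HEK293 cells stably carrying constitutively active human GLP-1R, after 24 h compound treatment.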
Potency is the fitted concentration of half-maximal effect; tags give direction and shape of the fitted curve.

Chain of UniProt P43220 (P43220 whole entry, looked up): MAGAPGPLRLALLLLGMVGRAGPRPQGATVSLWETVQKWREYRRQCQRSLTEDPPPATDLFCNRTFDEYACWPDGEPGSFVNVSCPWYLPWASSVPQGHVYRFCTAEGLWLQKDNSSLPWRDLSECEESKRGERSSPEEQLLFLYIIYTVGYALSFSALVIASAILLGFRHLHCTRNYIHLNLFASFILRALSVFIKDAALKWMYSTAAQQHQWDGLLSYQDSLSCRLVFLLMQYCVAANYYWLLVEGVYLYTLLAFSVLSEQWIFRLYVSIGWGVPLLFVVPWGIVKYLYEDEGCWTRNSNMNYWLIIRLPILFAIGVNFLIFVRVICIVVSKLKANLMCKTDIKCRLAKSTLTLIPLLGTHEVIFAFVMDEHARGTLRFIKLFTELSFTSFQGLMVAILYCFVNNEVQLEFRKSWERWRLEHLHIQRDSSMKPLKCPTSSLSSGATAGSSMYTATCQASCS

| Compound | Potency |
| --- | --- |
| COc1ccccc1C(=O)NC(=S)/C=C1/N(C)c2ccccc2C1(C)C | inconclusive [inhibitor, partial curve, poor fit] |
| Cc1ccc2scc(N3CCN(c4ccc(F)cc4)CC3)c(=O)c2c1 | inactive |
| CC1CC(C)CN(S(=O)(=O)c2ccc(NC(=O)C3CC(=O)N(Cc4ccccc4)C3)cc2)C1 (stereo unspecified) | inconclusive [inhibitor, single point] |
| O=c1c2ccccc2sn1-c1ccc(Cl)cc1Cl | inconclusive [inhibitor, partial curve] |
| CCc1cccc(C)c1NC(=O)CSc1nc2ccccc2nc1N1CCOCC1 | inconclusive [inhibitor, single point] |
| Cc1ccc(-c2nc3ncccc3o2)cc1NC(=O)CC(C)C | inactive |
| CCN(CC)CCn1c(NCc2cccc(OC)c2OC)nc2ccccc21 | inconclusive [inhibitor, partial curve, poor fit] |
| CCCCc1cc(=O)oc2c(CN3CCN(C)CC3)c(O)ccc12 | inactive |
| COc1c2ccoc2c(OC(C)=O)c2oc(C)cc(=O)c12 | inconclusive [inhibitor, single point] |
| CCCCc1c(-c2ccccc2OC)ncn1Cc1ccc(Cl)cc1 | inconclusive [inhibitor, single point] |
| COc1ccc(N=C2NN=C(c3c(C)[nH]c4ccccc34)CS2)cc1 | inconclusive [inhibitor, single point] |
| CCN(CCNC(=O)Nc1ccc(Cl)cc1)c1ccccc1 | inconclusive [inhibitor, partial curve, poor fit] |
| Cc1cc(NC(=O)N(C)CCc2c(C)nn(C)c2C)ccc1Br | inconclusive [inhibitor, partial curve, poor fit] |
| CCCN(CCC)CCCNC(=O)c1cc2cc3ccc(Cl)cc3nc2o1 | inactive |
| Cc1ccc(CN2CCN(CC(=O)NCc3ccc(Cl)cc3)C2=O)cc1 | inconclusive [inhibitor, single point] |
| O=C(O)c1cc(N/N=C/C=C/c2ccccc2[N+](=O)[O-])ccc1Cl | inconclusive [inhibitor, full curve, poor fit] |
| CCn1nc(CC(C)C)cc1C(=O)N1CCCC(Nc2ccc(F)cc2)C1 (stereo unspecified) | inconclusive [inhibitor, partial curve, poor fit] |
| Cc1cc(S(=O)(=O)c2ccc(Cl)cc2)nc(S(=O)(=O)c2ccc(Cl)cc2)c1C#N | inconclusive [inhibitor, single point] |
| CCOc1cc(/C=C2/C(=N)N3C=CSC3=NC2=O)ccc1OCCCOc1ccccc1C | inconclusive [inhibitor, partial curve, poor fit] |
| COc1ccc2c(c1OC)C(=O)N(c1cccc(C(F)(F)F)c1)C2 | inactive |
| N=c1n(CCN2CCCCC2)c2ccccc2n1CC(O)COc1ccc(Cl)cc1Cl (stereo unspecified) | inconclusive [inhibitor, single point] |
| CC(=O)Oc1ccc(OC(C)=O)c2c1CC(C)=C(C)C2 | inconclusive [inhibitor, single point] |

| Compound | Potency |
| --- | --- |
| O=C(Nc1cccc(S(=O)(=O)N2CCOCC2)c1)c1ccc(Cl)c([N+](=O)[O-])c1 | inconclusive [inhibitor, single point] |
| CCN1CCN(S(=O)(=O)c2ccc(Cl)c(C(=O)Nc3nnc(CC(C)C)s3)c2)CC1 | inconclusive [inhibitor, single point] |
| CSc1ccc(CCNC(=O)CN2C(=O)c3cccnc3Oc3ccc(C)cc32)cc1 | inconclusive [inhibitor, single point] |
| Cc1ccc(Cl)cc1NC(=S)N(Cc1ccccc1)Cc1cccnc1 | inconclusive [inhibitor, single point] |
| COc1cccc(-c2nc(CS(=O)(=O)CC(=O)NCC(C)c3ccccc3)c(C)o2)c1 (stereo unspecified) | inconclusive [inhibitor, single point] |
| CCc1ccc(NC(=O)Nc2cccs2)cc1 | inconclusive [inhibitor, single point] |
| COc1ccc(OC)c(Nc2nc(NCc3ccco3)c3ccccc3n2)c1 | inconclusive [inhibitor, partial curve, poor fit] |
| Cc1ccc(/C=C/C(=O)NCCCc2ccccc2)cc1 | inconclusive [inhibitor, single point] |
| COc1cccc(-c2nc(CS(=O)(=O)CC(=O)Nc3c(C)cc(C)cc3C)c(C)o2)c1 | inconclusive [inhibitor, single point] |
| O=C(NC1CC(=O)N(c2ccc(Cl)cc2)C1)c1ccc2c(c1)OCO2 (stereo unspecified) | inactive |
| CCOC(=O)/C(C#N)=C/c1cn(CCOc2ccccc2)c2ccccc12 | inconclusive [inhibitor, single point] |
| Cc1ccccc1C(C(=O)NC1CCCC1)N(C(=O)Cc1cccs1)c1ccc2c(c1)OCCO2 (stereo unspecified) | inconclusive [inhibitor, partial curve, poor fit] |
| Cc1ccc(N(CC(=O)NC(C)c2ccccc2)S(=O)(=O)c2cccs2)cc1 (stereo unspecified) | inconclusive [inhibitor, single point] |
| COC(=O)c1ccc(Cl)c(NC(=O)NC2CCCCC2)c1 | inconclusive [inhibitor, single point] |
| CC(=O)c1cccc(NC(=S)Nc2ccn(Cc3cccc4ccccc34)n2)c1 | inconclusive [inhibitor, single point] |
| O=c1[nH]c2c(s1)C(c1ccc(O)cc1)C1C3CCC(C3)C1S2 (stereo unspecified) | inconclusive [inhibitor, partial curve, poor fit] |
| O=C(CNC(=S)N(Cc1ccccc1)Cc1cccnc1)NC1CCCC1 | inconclusive [inhibitor, single point] |
| Cn1cc(C(=O)NCc2ccccc2)c(=O)c2cc(S(=O)(=O)N3CCOCC3)ccc21 | inactive |
| COc1cc(Cl)cc(/C=N\NC(=O)c2ccc3c(c2)OCO3)c1O | inconclusive [inhibitor, full curve, poor fit] |
| O=C(COC(=O)CC(c1ccccc1)c1ccccc1)NCc1ccccc1 | inconclusive [inhibitor, partial curve, poor fit] |
| Cc1ccc(Cl)cc1NC(=O)CC(O)(C(F)(F)F)C(F)(F)F | inconclusive [inhibitor, single point] |
| COc1ccc(Cl)cc1N1C(=O)/C(=C\c2sccc2C)N=C1SCC(=O)NC1CC1 | active: 8.91 µM |

| Compound | Potency |
| --- | --- |
| Cc1cccc(NC(=O)CS(=O)(=O)c2nc(-c3ccccc3)cn2-c2cccc(Cl)c2)c1C | inconclusive [inhibitor, single point] |
| Cc1ccc(S(=O)(=O)N(CCc2ccccc2)CC(=O)Nc2cc(C)ccc2C)cc1 | inactive |
| Oc1ccc(Cl)cc1/C=C/c1ccc2cccc(O)c2n1 | inconclusive [inhibitor, single point] |
| CCOC(=O)c1cc(-c2ccc(C)cc2)n(CCC(=O)Nc2ccc(C(C)C)cc2)c1C | active: 2.51 µM |
| Cc1cccc(N2CCN(Cc3nc(-c4ccccc4Cl)oc3C)CC2)n1 | inconclusive [inhibitor, partial curve, poor fit] |
| CN1CCC(=O)N(CCSc2ccc(Br)cc2)CC1 | inactive |
| COc1ccccc1N1CCN(Cc2nc3ccsc3c(=O)[nH]2)CC1 | inactive |
| COc1cccc(-c2cc(C(=O)N/N=C/c3ccco3)c3ccccc3n2)c1 | inactive |
| O=C(NCCN1CCN(c2cccc(Cl)c2)CC1)C1COc2ccccc2C1 (stereo unspecified) | inconclusive [inhibitor, single point] |
| Oc1cccc2ccc(/C=C/c3c(F)cccc3Cl)nc12 | inconclusive [inhibitor, partial curve, poor fit] |
| Cn1cc(CN2CCCC(CO)(Cc3ccccc3)C2)c2ccccc21 (stereo unspecified) | inconclusive [inhibitor, partial curve, poor fit] |
| CCOC(=O)c1sc(NC(=O)CSc2n[nH]c(-c3ccccc3)n2)c(C#N)c1C | inconclusive [inhibitor, partial curve, poor fit] |
| Cc1ccc(C(=O)NCC(c2ccco2)N2CCc3ccccc3C2)cc1C (stereo unspecified) | active: 11.2 µM |
| O=C(/C=C/c1ccco1)c1ccc(NC(=O)C23CC4CC(CC(C4)C2)C3)cc1 | inconclusive [inhibitor, single point] |
| Cc1cccc(CNC(=O)Cn2ccc3cc(S(=O)(=O)N4CCCC4)ccc32)c1 | inactive |
| CCOc1ccc(CCNC(=O)c2cn(CC)c3ccc(S(=O)(=O)N4CCCCCC4)cc3c2=O)cc1OCC | inactive |
| CC(=O)N1CCCc2cc(S(=O)(=O)N(C)CC(=O)Nc3cccc(C)c3C)ccc21 | inactive |
| Cc1ccc(C(C)NC(=O)c2cc(C)oc2C)cc1 (stereo unspecified) | inconclusive [inhibitor, single point] |
| O=C(CN1CCC(c2nc3ccccc3s2)CC1)NCc1ccccc1 | inconclusive [inhibitor, partial curve, poor fit] |
| CC1CCN(CC(=O)Nc2ccc(N3CCCCCC3)cc2)CC1 | active: 2.82 µM |
| COCCn1c(-c2ccc(OC)cc2)c(-c2ccc(OC)cc2)oc1=O | inactive |
| C/C(=N\N(c1ccccc1)c1ccccc1)c1ccco1 | active: 8.91 µM |
